Data reported in PubChem BioAssay AID2675 (National Center for Advancing Translational Sciences (NCATS), 2010).
Screen size: about 280,000 compounds; about 100 (0.036%) were called active. Inconclusive results, whose numbers are uncertain, are shown with a selection of clear calls. Calls follow the shape of the dose curve; as a rule, active = well fitted inhibition curve with a large enough effect in the signal ratio, with a control signal flat (not every such curve was filed as active); inconclusive = small, poorly fitted or top-dose-only effect, or effect the other way, or a change in a side signal; inactive = no such curve, though single readings can be large or run the other way; the % refers to the signal ratio. Where the call is inconclusive, the potency comes from a doubtful curve fit. A note “side channel” means that the fit belongs to a control or component signal, not to the main read-out.
% is scaled to controls: 0 for no effect and ±100 for the full control effect; potency is read from the fitted curve at half-maximal effect; tags tell the direction and shape of the fitted curve or compound fluorescence and quenching.

What follows are compounds tested against Muscleblind-like protein 1 (Homo sapiens) (UniProt Q9NR56) (assay: qHTS Assay for Inhibitors of MBNL1-poly(CUG) RNA binding). Conditions: TR-FRET MBNL1-His/biotin-(CUG)12 binding, 665/545 ratio; activity change, negative = inhibition: at 57.5 µM (top of the series).
Chain of UniProt Q9NR56 (Q9NR56 whole entry, looked up): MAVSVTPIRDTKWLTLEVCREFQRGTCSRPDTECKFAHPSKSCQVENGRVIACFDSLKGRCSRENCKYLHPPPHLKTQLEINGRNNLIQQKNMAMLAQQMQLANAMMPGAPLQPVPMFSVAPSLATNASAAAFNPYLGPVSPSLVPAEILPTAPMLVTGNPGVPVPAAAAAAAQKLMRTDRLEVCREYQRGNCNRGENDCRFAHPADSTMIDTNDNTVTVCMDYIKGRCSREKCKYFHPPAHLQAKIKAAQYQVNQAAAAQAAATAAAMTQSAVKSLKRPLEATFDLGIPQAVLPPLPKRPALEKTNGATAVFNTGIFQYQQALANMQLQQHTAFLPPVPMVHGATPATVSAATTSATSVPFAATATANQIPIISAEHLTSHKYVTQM
Summary of the method: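 Compound titration spanned 92 nM–58 uM against the MBNL1-His/biotin-(CUG)12 complex. After 60 min at room temperature with 5 nM streptavidin-XL665 and 0.055 ng/ul terbium anti-His, ratiometric 665/545 nm emission (Ex 340 nm) normalized to controls.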
For `COc1cccc(N2C(=O)C3NN=C(C(=O)CN4C(=O)c5ccccc5C4=O)C3C2=O)c1` (stereo unspecified), the Potency was inconclusive: 28.2 µM [quencher, side channel, partial curve]. In the case of `CCOc1ccc(/C=C(\C#N)C(=O)c2c(C)[nH]c3ccccc23)cc1OC`, the “activity change, negative = inhibition” value was inactive: 0.203%. In the case of `CCn1c(N)c(C(=O)Nc2ccccc2C(=O)OC)sc1=S`, the “activity change, negative = inhibition” value was inactive: 8.46%. `O=C(N/N=C/c1ccc([N+](=O)[O-])cc1)c1cnccn1` was tested, and the Potency was inconclusive: 2 µM [quencher, side channel, full curve]. `O=C(CN1C2=NCCCN2c2ccccc21)c1ccc(Br)s1` was tested, and the “activity change, negative = inhibition” value was inactive: 18%. `Cc1cccc([C@@H]2[C@@H]3C(=O)N(Cc4ccccc4)C(=O)[C@@H]3[C@]3(Cc4ccc(Cl)cc4)C(=O)N(c4ccc(Br)cc4)C(=O)N23)c1` was tested, and the “activity change, negative = inhibition” value was inactive: 5.18%. With `COc1ccc(C2NCCc3c2[nH]c2ccccc32)cc1CSc1nc2ccccc2s1` (stereo unspecified) the Potency was inconclusive: 3.16 µM [fluorescent, side channel, partial curve]. In the case of `O=C1c2ccccc2-c2cccc(C(=O)N3CCCCCC3)c21`, the Potency was inconclusive: 20 µM [quencher, side channel, partial curve]. `O=C1C2C3C=CC(C3)C2C(=O)N1Nc1ccc([N+](=O)[O-])cc1[N+](=O)[O-]` (stereo unspecified) was tested, and the Potency was inconclusive: 15.8 µM [quencher, side channel, partial curve]. In the case of `CC(C)c1csc(CN2CCC(CO)(Cc3ccccc3)CC2)n1`, the Potency was inconclusive: 12.6 µM [inhibitor, single point]. With `Cc1ccc(O)c(NC(=O)C2=CC(c3ccco3)=NS(=O)(=O)N2C)c1` the Potency was inconclusive: 17.8 µM [quencher, side channel, partial curve]. `O=C(O)COc1ccccc1/C=N/Nc1ccc(S(=O)(=O)N2CCOCC2)cc1[N+](=O)[O-]` was tested, and the Potency was inconclusive: 5.62 µM [quencher, side channel, partial curve]. With `O=C(CSc1nc(-c2ccccc2)ns1)NCC1CCCO1` (stereo unspecified) the “activity change, negative = inhibition” value was inactive: 3.91%. With `CS(=O)(=O)N(CC(=O)Nc1ccc(F)cc1F)c1cccc([N+](=O)[O-])c1` the Potency was inconclusive: 17.8 µM [quencher, side channel, partial curve]. `C=CCOn1c(C)c(C(C)=O)c2c3nonc3ccc21` was tested, and the Potency was inconclusive: 11.2 µM [quencher, partial curve]. With `CCN1C(=O)c2cccc3c(S(=O)(=O)Nc4ncccc4C)ccc1c23` the Potency was inconclusive: 25.1 µM [quencher, partial curve]. In the case of `CCOC(=O)c1cc[n+](CC(=O)c2ccc(F)cc2)cc1`, the Potency was inconclusive: 12.6 µM [activator, partial curve]. In the case of `CC(=O)c1c(Cl)nc2cccc3c2c1-c1ccccc1C3=O`, the Potency was inconclusive: 2.82 µM [quencher, side channel, full curve]. In the case of `CN(C)c1ccc(-n2cccc2/C=N/n2cnnc2)cc1`, the Potency was inconclusive: 31.6 µM [quencher, side channel, single point]. `O=C(O)c1cccc(S(=O)(=O)Nc2ccc3oc(=O)sc3c2)c1` was tested, and the “activity change, negative = inhibition” value was inactive: -4.8%. `COc1cccc(NCc2ccc([N+](=O)[O-])s2)c1` was tested, and the Potency was inconclusive: 2.82 µM [quencher, side channel, full curve, poor fit]. In the case of `CCC(C)NC(=O)c1cn(-c2cccc(OC)c2)c(=O)c2ccccc12` (stereo unspecified), the Potency was inconclusive: 39.8 µM [quencher, side channel, single point]. With `CCCC(=O)Nc1cccc(Oc2ccc3c(c2)C(=O)NC3=O)c1` the Potency was inconclusive: 15.8 µM [quencher, side channel, partial curve]. With `Cc1cc2[nH]c(=O)c(=O)[nH]c2cc1S(=O)(=O)N1CCN(c2cccc(Cl)c2)CC1` the “activity change, negative = inhibition” value was inactive: 0.921%. In the case of `Cc1ccccc1OCC(=O)Nc1ccccc1-c1ccccc1`, the Potency was inconclusive: 12.6 µM [quencher, side channel, partial curve]. With `COc1nc(-c2ccccc2)cc(-c2ccc(OC)c(OC)c2)n1` the “activity change, negative = inhibition” value was inactive: 8.08%. With `Cc1ccc(S(=O)(=O)Oc2ccc(C)cc2/C=N/N=C2\NC(=O)C(C)S2)cc1` (stereo unspecified) the Potency was inconclusive: 4.47 µM [quencher, side channel, single point]. With `O=C(CNC(=O)c1ccco1)N=Nc1c(O)[nH]c2ccc([N+](=O)[O-])cc12` the Potency was inconclusive: 15.8 µM [quencher, side channel, partial curve]. For `O=C(CCSCc1ccc(Cl)cc1)NCc1cccs1`, the “activity change, negative = inhibition” value was inactive: -2.31%. With `CN(C)CCCNC(=O)/C(=C/c1ccc(-c2ccc([N+](=O)[O-])cc2)o1)NC(=O)c1ccccc1` the Potency was inconclusive: 10 µM [quencher, side channel, partial curve]. With `CN(C)/C=C/C(=O)c1cnc(-c2ccccc2)s1` the Potency was inconclusive: 28.2 µM [quencher, side channel, partial curve]. In the case of `CC(C)CNC(=O)/C=C/c1cccs1`, the Potency was inconclusive: 22.4 µM [quencher, side channel, partial curve]. For `O=C(CCSc1nc(-c2ccco2)cc(C(F)(F)F)n1)NCc1cccs1`, the Potency was inconclusive: 0.708 µM [quencher, side channel, single point]. With `CCCn1c(N2CCN(C)CC2)nc2c1c(=O)[nH]c(=O)n2C` the Potency was inconclusive: 63.1 µM [inhibitor, single point]. With `CNC(=S)NCc1ccc(OC)cc1` the “activity change, negative = inhibition” value was inactive: -1.89%. In the case of `C/C(=N/NC(=O)Cc1cc(=O)[nH][nH]1)c1ccc([N+](=O)[O-])cc1`, the Potency was inconclusive: 12.6 µM [quencher, side channel, partial curve]. `COc1ccc2nc3c(cc2c1)c(NC(=O)C1CCCO1)nn3CC(C)C` (stereo unspecified) was tested, and the “activity change, negative = inhibition” value was inactive: 24.3%. With `Cn1ccnc1SCC(=O)c1ccc([N+](=O)[O-])cc1` the Potency was inconclusive: 11.2 µM [quencher, partial curve]. `CCN(CC)CCn1c2ccccc2c2cnc(N)c(C#N)c21` was tested, and the Potency was inconclusive: 126 µM [inhibitor, partial curve]. For `CC(C)C(=O)NNC(=O)CSc1nnc(-c2ccccc2)c(-c2ccccc2)n1`, the Potency was inconclusive: 28.2 µM [quencher, side channel, partial curve]. `Cc1csc2ncc(C(=O)N3CCCc4ccccc43)c(=O)n12` was tested, and the Potency was inconclusive: 7.94 µM [quencher, side channel, full curve]. For `CN1CC=C2C(C#N)=C(N)C(C#N)(C#N)C(c3ccsc3)C2C1` (stereo unspecified), the Potency was inconclusive: 20 µM [quencher, side channel, single point]. In the case of `COc1ccccc1CN1C(=O)c2ccncc2C1=O`, the Potency was inconclusive: 8.91 µM [quencher, side channel, partial curve]. In the case of `Cc1cccn2c(=O)c3cc(C(=O)NCCc4ccccc4)c(=N)n(Cc4ccco4)c3nc12`, the Potency was inconclusive: 3.16 µM [quencher, full curve]. In the case of `CCOc1ccccc1NC(=S)NC1CC2CCC1C2` (stereo unspecified), the “activity change, negative = inhibition” value was inactive: -5.84%. For `O=[N+]([O-])c1ccc(O)c(/C=N/Nc2ccccc2Cl)c1`, the “activity change, negative = inhibition” value was inactive: 0.0372%. In the case of `CC1(O)CC(c2ccc(Cl)cc2)=NN1C(=O)c1ccc([N+](=O)[O-])cc1` (stereo unspecified), the Potency was inconclusive: 25.1 µM [quencher, side channel, partial curve]. In the case of `CCOc1ccc(C2=C/C(=C/c3cccnc3)C(=O)O2)cc1`, the “activity change, negative = inhibition” value was inactive: -0.52%. In the case of `O=C(Nc1cccc([N+](=O)[O-])c1)C1CC(=O)N(Cc2ccccc2)C1` (stereo unspecified), the Potency was inconclusive: 14.1 µM [quencher, side channel, partial curve]. In the case of `CC(=O)/C=C(/C)NC(Cc1c[nH]c2ccccc12)C(=O)O` (stereo unspecified), the Potency was inconclusive: 1.58 µM [fluorescent, side channel, full curve, poor fit]. With `C#CCn1c(O)c(N=NC(=O)C(O)c2ccccc2)c2ccccc21` (stereo unspecified) the Potency was inconclusive: 7.94 µM [quencher, side channel, partial curve]. In the case of `O=C(O)c1ccc(N2C(=O)CSC2c2cccc([N+](=O)[O-])c2)cc1` (stereo unspecified), the Potency was inconclusive: 28.2 µM [quencher, side channel, single point]. In the case of `C=CCc1cccc2cc(C(=O)NNC(=O)CC#N)c(=O)oc12`, the Potency was inconclusive: 15.8 µM [quencher, side channel, partial curve]. In the case of `CC(Sc1nc(-c2ccccc2)cc(C(F)(F)F)n1)C(=O)N1CCOCC1` (stereo unspecified), the Potency was inconclusive: 3.16 µM [fluorescent, side channel, partial curve]. In the case of `CN(C(=O)c1ccc2c(c1)C(=O)N(CCC1=CCCCC1)C2=O)C1CCCCC1`, the Potency was inconclusive: 25.1 µM [quencher, side channel, partial curve]. `COc1ccc(OC)c(NC(=O)CSc2nc(C)cs2)c1` was tested, and the Potency was inconclusive: 39.8 µM [fluorescent, single point]. With `Cc1nc2ccc(NC(=S)NC(C)C)cc2nc1C` the Potency was inconclusive: 39.8 µM [quencher, side channel, single point]. In the case of `O=C(OCn1ncc(Br)c(Br)c1=O)c1c(F)cccc1F`, the Potency was inconclusive: 28.2 µM [quencher, side channel, partial curve]. With `O=C(O)c1ccc(Nc2ncc([N+](=O)[O-])cc2[N+](=O)[O-])cc1` the Potency was inconclusive: 3.16 µM [quencher, side channel, full curve]. For `COc1ccc(C(C[N+](=O)[O-])c2c(-c3ccccc3)cc3ccccn23)cc1` (stereo unspecified), the Potency was inconclusive: 35.5 µM [quencher, side channel, partial curve]. With `O=C(/C=C/c1cccc([N+](=O)[O-])c1)N1CCN(c2ccccc2F)CC1` the Potency was inconclusive: 25.1 µM [quencher, side channel, single point].
